Structures are written as SMILES. The campaign covered roughly 310,000 compounds. About 2,200 (0.71%) showed an effect of 50% or more. The effect is printed as a negative number. Some of the results follow. Where a SMILES comes first, the peptide text is derived from it. The star is where a group is joined. Boc = CC(C)(C)OC(=O)*

For the test, the target named is human ether-à-go-go-related gene (hERG) potassium channel (human, UniProt Q12809). The experiment in a line: primary screen, population patch clamp on CHO cells stably expressing hERG.
Sequence of human ether-à-go-go-related gene (hERG) potassium channel (Q12809 whole entry, looked up): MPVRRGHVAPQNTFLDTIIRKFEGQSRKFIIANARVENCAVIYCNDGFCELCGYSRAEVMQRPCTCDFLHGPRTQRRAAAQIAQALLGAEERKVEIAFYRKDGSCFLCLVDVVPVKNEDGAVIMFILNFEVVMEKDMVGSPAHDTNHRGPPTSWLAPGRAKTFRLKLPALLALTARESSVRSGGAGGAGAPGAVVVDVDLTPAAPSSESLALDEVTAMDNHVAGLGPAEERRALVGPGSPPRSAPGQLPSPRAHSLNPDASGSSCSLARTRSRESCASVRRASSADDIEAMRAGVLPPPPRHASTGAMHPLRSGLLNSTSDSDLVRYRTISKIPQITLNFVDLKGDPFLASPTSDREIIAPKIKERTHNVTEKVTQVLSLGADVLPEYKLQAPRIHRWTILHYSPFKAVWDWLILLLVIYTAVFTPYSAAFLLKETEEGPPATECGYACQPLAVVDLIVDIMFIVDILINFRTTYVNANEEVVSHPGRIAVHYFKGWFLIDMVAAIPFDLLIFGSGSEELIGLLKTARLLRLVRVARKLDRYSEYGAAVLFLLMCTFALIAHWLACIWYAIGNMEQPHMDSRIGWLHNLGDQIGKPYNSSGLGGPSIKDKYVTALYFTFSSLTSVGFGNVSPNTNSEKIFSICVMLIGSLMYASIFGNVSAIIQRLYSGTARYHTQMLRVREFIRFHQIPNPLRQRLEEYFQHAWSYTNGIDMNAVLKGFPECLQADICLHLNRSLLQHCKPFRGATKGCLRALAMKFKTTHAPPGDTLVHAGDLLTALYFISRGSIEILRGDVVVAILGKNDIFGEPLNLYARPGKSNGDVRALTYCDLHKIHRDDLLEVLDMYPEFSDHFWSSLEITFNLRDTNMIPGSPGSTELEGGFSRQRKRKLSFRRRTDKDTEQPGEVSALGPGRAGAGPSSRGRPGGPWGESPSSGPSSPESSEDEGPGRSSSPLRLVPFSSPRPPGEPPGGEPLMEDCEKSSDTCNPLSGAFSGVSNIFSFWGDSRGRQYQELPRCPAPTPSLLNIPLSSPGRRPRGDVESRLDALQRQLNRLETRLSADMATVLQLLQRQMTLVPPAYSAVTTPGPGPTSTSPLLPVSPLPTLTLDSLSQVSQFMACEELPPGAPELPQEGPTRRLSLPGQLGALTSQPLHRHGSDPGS
Turning to `COc1ccccc1C(CNC(=O)C1CC(=O)N(Cc2ccc(C)cc2)C1)N1CCCC1` (centres unmarked), the “hERG current change (%, negative = inhibition) at 1uM” value was 2.22%. The figure for `COc1ccccc1CC(=O)NNC(=O)c1ccc(C(C)(C)C)cc1` is 8.63%; for `CCO[C@H]1OC(C(=O)NC2CC2)=C[C@@H](c2ccccc2)[C@@H]1CCCO` it is 12.1%; for `Cc1nn(-c2ccccc2)c2nc(C(F)(F)F)[nH]c(=O)c12` it is 12.6%.

For the molecule `Cl.O=C(NCCN1CCOCC1)c1cc(S(=O)(=O)Nc2ccccc2F)c(Cl)cc1Cl`, the “hERG current change (%, negative = inhibition) at 1uM” value worked out at 10.3%. The figure for `CC(=O)Nc1ccc(S(=O)(=O)N(Cc2cccnc2)Cc2cc3ccccc3[nH]c2=O)cc1` is 16.2%; for `O=C(c1cccs1)N1CCCC(c2nc3c(nnn3Cc3cccc(Cl)c3)c(=O)[nH]2)C1` (centres unmarked) it is 15.1%; for `O=C(CSc1nnc(Cc2cc(=O)[nH]c(=O)[nH]2)n1-c1ccc(Cl)cc1)N1CCc2ccccc21` it is 10.4%. The figure for `Cc1ccc(CNCc2ccco2)cc1.O=C(O)C(=O)O` is 6.22%. Turning to `CC(=O)N1N=C2C3CCN(CC3)C2C1c1cccc2ccccc12` (centres unmarked), the “hERG current change (%, negative = inhibition) at 1uM” value was 9.46%. As for `COc1ccc(/C=N/Nc2nc(C)c([N+](=O)[O-])c(N(C)c3ccccc3)n2)cc1OC`, the figure is 1.54%; as for `CC(=O)c1ccc(N=C2C(=O)Nc3ccccc32)cc1`, 4.5%; as for `CNC(=S)Nc1ccc(C(N)=O)cc1`, 10.2%. On to `CCCc1nnc(NC(=O)Nc2ccccc2OC)s1`, for which the “hERG current change (%, negative = inhibition) at 1uM” value is given as 15.5%. As for `CSCCC1NC(=O)N(C(C)C(=O)Nc2cc(Cl)cc(Cl)c2)C1=O` (centres unmarked), the figure is 2.69%. The figure for `Cc1cc(NC(=O)c2cc(C(C)C)on2)nn1Cc1ccc(Cl)cc1` is 9.74%; for `Cn1cc(C(=O)N2CCN(c3ccccn3)CC2)c(=O)c2cc(S(=O)(=O)N3CCOCC3)ccc21` it is -5.96%; for `COc1ccc(NC(=O)CC(Cc2ccc(Cl)cc2)C(=O)O)cc1` (centres unmarked) it is 14.3%. As for `Cc1cc(C)cc(N(CC(=O)NCc2ccc(F)cc2)C(=O)CCC(=O)Nc2ccccn2)c1`, the figure is 13.1%. On to `Cc1cc(C)c(S(=O)(=O)NC(C)C)c(C)c1-n1cnnn1`, for which the “hERG current change (%, negative = inhibition) at 1uM” value is 9.48%. As for `CCCCOc1ccc(C(=O)NN2CCOCC2)cc1`, the figure is 11.5%. As for `CCN(CC(=O)NC1CC1)S(=O)(=O)c1ccc(OC)cc1`, the figure is 17.1%; as for `COc1ccc(S(=O)(=O)n2cnc(C)c2)cc1`, 17.8%. The figure for `CC12CCC(C(=O)NCC3CCCO3)(OC1=O)C2(C)C` (centres unmarked) is 13%; for `CC(C(=O)NCCN1C(=O)S/C(=C\c2cccs2)C1=O)N1C(=O)c2ccccc2C1=O` (centres unmarked) it is -7.59%; for `CC1(C)CCc2c([nH]c3ccccc3c2=O)O1` it is 14.1%. `Cn1nc([N+](=O)[O-])nc1Oc1ccccc1F`: the “hERG current change (%, negative = inhibition) at 1uM” value is 5.86%. `COC(=O)[C@@H]1CCCN1C(=O)[C@@H](NC(=O)OC(C)(C)C)C(C)C` (Boc-Val-Pro-OMe): the “hERG current change (%, negative = inhibition) at 1uM” value was determined as 12.9%. The figure for `O=S(=O)(c1ccc(F)cc1)N1CCc2ccccc21` is -0.784%; for `O=[N+]([O-])c1ccc(S(=O)(=O)N/N=C/c2ccc3c(c2)OCO3)cc1` it is 4.85%. On to `CCOC(=O)c1c(NC(=O)Cn2nnc(-c3ccc(Cl)cc3)n2)sc(CC)c1C`, for which the “hERG current change (%, negative = inhibition) at 1uM” value was 16.2%. The figure for `COc1ccccc1N/C=C/c1onc(C)c1[N+](=O)[O-]` is 12.4%; for `CCN(C(=O)c1ccc(NC(C)=O)cc1)c1ccccc1` it is -1.02%. As to `COc1ccc(C2=NN(C(=O)c3ccccc3)C(c3ccc(OC)c(OC)c3)C2)c(OC(C)=O)c1` (centres unmarked), the “hERG current change (%, negative = inhibition) at 1uM” value was determined as 25.9%. On to `CCOC(=O)N1CCC(N2C(=O)c3ccc(C(=O)Nc4ccc(OC)cc4)cc3C2=O)CC1`, for which the “hERG current change (%, negative = inhibition) at 1uM” value was determined as 14.1%. The figure for `N/C(=N\OC(=O)Cc1ccccc1[N+](=O)[O-])c1ccccn1` is 5.59%; for `CCN(CC)C(=O)c1cn(CCC#N)nc1-c1ccc2c(c1)OCCO2` it is 15.2%; for `COc1cccc(C=Nc2cc(C)cc(C)c2)c1O` it is 8.78%. For `O=C(CN1C(=O)S/C(=C\c2cc(Cl)c(O)c(Cl)c2)C1=O)Nc1ccccc1`, the “hERG current change (%, negative = inhibition) at 1uM” value stood at 17.8%.

For `COc1ccc(CCNC(=O)c2cc(C)oc2C)cc1`, the “hERG current change (%, negative = inhibition) at 1uM” value is given as 10.3%. The figure for `COc1cc(-c2nc(-c3ccccn3)no2)cc(OC)c1OC` is 6.95%; for `CN(C)c1ccc(-c2ccc([C@H]3[C@@H]4C=CCC[C@@]4(C)C(=O)N3Cc3ccccc3)c(F)c2)cc1` it is 11.4%; for `COc1cc(NC(=O)C2CC(=O)N(CCc3ccc(F)cc3)C2)cc(OC)c1OC` (centres unmarked) it is 12.1%.

Take `CCOC(=O)c1ccc(S(=O)(=O)NNC(=O)COc2ccc(C)cc2)cc1`: the “hERG current change (%, negative = inhibition) at 1uM” value is on record as 19.2%.

Source of the values: article PMC4336329 (PLoS ONE, 2015).
